Assay results: the supplement of paper PMC8728848
The other results are listed elsewhere or left out.

Assays:
Assay in all cases: glycan array binding signal (z-score within array); higher = stronger binding
Details in all cases: glycan notation: IUPAC condensed, linker removed
[1] = molecular target: Fuc(a1-3)GlcNAc
Procedure, shortened: (§1)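 Glycan array data came from 3228 arrays in the Consortium for Functional Glycomics database, and only arrays with an available protein sequence were kept. Glycan names were put into IUPAC-condensed notation, and columns mapping to the same glycan were averaged. The binding signal is a within-array Z-score, averaged across arrays of one protein sequence run at different concentrations or buffers and across linkers. A negative Z-score can be read as non-binding.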

[2] = molecular target: Fuc(a1-3)[Gal(b1-4)]Glc6S
Procedure, shortened: as §1

[3] = molecular target: Fuc(a1-3)[Gal(b1-4)]GlcNAc
Procedure, shortened: as §1

[4] = molecular target: Fuc(a1-3)[Gal(b1-4)]GlcNAc(b1-2)Man
Procedure, shortened: as §1

[5] = molecular target: Fuc(a1-3)[Gal(b1-4)]GlcNAc(b1-2)Man(a1-3)[Fuc(a1-3)[Gal(b1-4)]GlcNAc(b1-2)Man(a1-6)]Man(b1-4)GlcNAc(b1-4)GlcNAc
Procedure, shortened: as §1

[6] = molecular target: Fuc(a1-3)[Gal(b1-4)]GlcNAc(b1-2)Man(a1-3)[Fuc(a1-3)[Gal(b1-4)]GlcNAc(b1-2)Man(a1-6)]Man(b1-4)GlcNAc(b1-4)[Fuc(a1-6)]GlcNAc
Procedure, shortened: as §1

[7] = molecular target: Fuc(a1-3)[Gal(b1-4)]GlcNAc(b1-3)Gal(b1-3)[Fuc(a1-4)]GlcNAc
Procedure, shortened: as §1

[8] = molecular target: Fuc(a1-3)[Gal(b1-4)]GlcNAc(b1-3)Gal(b1-4)[Fuc(a1-3)]GlcNAc
Procedure, shortened: as §1

[9] = molecular target: Fuc(a1-3)[Gal(b1-4)]GlcNAc(b1-3)Gal(b1-4)[Fuc(a1-3)]GlcNAc(b1-3)Gal(b1-4)[Fuc(a1-3)]GlcNAc
Procedure, shortened: as §1

[10] = molecular target: Fuc(a1-3)[Gal(b1-4)]GlcNAc(b1-3)GalNAc
Procedure, shortened: as §1

[11] = molecular target: Fuc(a1-3)[Gal(b1-4)]GlcNAc(b1-6)GalNAc
Procedure, shortened: as §1

[12] = molecular target: Fuc(a1-3)[Gal(b1-4)]GlcNAc(b1-6)[Gal(b1-3)GlcNAc(b1-3)]Gal(b1-4)Glc
Procedure, shortened: as §1

[13] = molecular target: Fuc(a1-3)[Gal(b1-4)]GlcNAc6S
Procedure, shortened: as §1

[14] = molecular target: Fuc(a1-3)[Gal3S(b1-4)]Glc
Procedure, shortened: as §1

[15] = molecular target: Fuc(a1-3)[Gal3S(b1-4)]GlcNAc
Procedure, shortened: as §1

[16] = molecular target: Fuc(a1-3)[Gal3S(b1-4)]GlcNAc6S
Procedure, shortened: as §1

[17] = molecular target: Fuc(a1-3)[GalNAc(b1-4)]GlcNAc
Procedure, shortened: as §1

[18] = molecular target: Fuc(a1-3)[GalNAc(b1-4)]GlcNAc6S
Procedure, shortened: as §1

[19] = molecular target: Fuc(a1-4)GlcNAc
Procedure, shortened: as §1

[20] = molecular target: Fuc(b1-3)GlcNAc
Procedure, shortened: as §1

[21] = molecular target: Gal(a1-2)Gal
Procedure, shortened: as §1

[22] = molecular target: Gal(a1-3)Gal
Procedure, shortened: as §1

[23] = molecular target: Gal(a1-3)Gal(b1-3)GlcNAc
Procedure, shortened: as §1

[24] = molecular target: Gal(a1-3)Gal(b1-3)GlcNAc(b1-2)Man
Procedure, shortened: as §1

[25] = molecular target: Gal(a1-3)Gal(b1-3)GlcNAc(b1-2)Man(a1-3)[Gal(a1-3)Gal(b1-3)GlcNAc(b1-2)Man(a1-6)]Man(b1-4)GlcNAc(b1-4)GlcNAc
Procedure, shortened: as §1

[26] = molecular target: Gal(a1-3)Gal(b1-3)GlcNAc(b1-3)GalNAc
Procedure, shortened: as §1

[27] = molecular target: Gal(a1-3)Gal(b1-3)GlcNAc(b1-6)GalNAc
Procedure, shortened: as §1

[28] = molecular target: Gal(a1-3)Gal(b1-3)[Fuc(a1-4)]GlcNAc(b1-2)Man(a1-3)[Gal(a1-3)Gal(b1-3)[Fuc(a1-4)]GlcNAc(b1-2)Man(a1-6)]Man(b1-4)GlcNAc(b1-4)GlcNAc
Procedure, shortened: as §1

[29] = molecular target: Gal(a1-3)Gal(b1-4)Glc
Procedure, shortened: as §1

[30] = molecular target: Gal(a1-3)Gal(b1-4)GlcNAc
Procedure, shortened: as §1

[31] = molecular target: Gal(a1-3)Gal(b1-4)GlcNAc(b1-2)Man
Procedure, shortened: as §1

[32] = molecular target: Gal(a1-3)Gal(b1-4)GlcNAc(b1-2)Man(a1-3)[Gal(a1-3)Gal(b1-4)GlcNAc(b1-2)Man(a1-6)]Man(b1-4)GlcNAc(b1-4)GlcNAc
Procedure, shortened: as §1

[33] = molecular target: Gal(a1-3)Gal(b1-4)GlcNAc(b1-3)GalNAc
Procedure, shortened: as §1

[34] = molecular target: Gal(a1-3)Gal(b1-4)GlcNAc(b1-6)GalNAc
Procedure, shortened: as §1

[35] = molecular target: Gal(a1-3)Gal(b1-4)[Fuc(a1-3)]GlcNAc
Procedure, shortened: as §1

[36] = molecular target: Gal(a1-3)Gal(b1-4)[Fuc(a1-3)]GlcNAc(b1-2)Man(a1-3)[Gal(a1-3)Gal(b1-4)[Fuc(a1-3)]GlcNAc(b1-2)Man(a1-6)]Man(b1-4)GlcNAc(b1-4)GlcNAc
Procedure, shortened: as §1

[37] = molecular target: Gal(a1-3)GalNAc
Procedure, shortened: as §1

B1: SP16665A-bot-344-23-344 (Bacteroides ovatus) (protein)
chain: SDNEFPDFDYQTVYFANQYGLRTIELGESEFVDNTLDNQHKMVIKAAWGGGYTNRNNVVINFKVDESLCDNLYFKDTDQPLVPMPASYYTLASDRIAIPKGQIMAGVEVQLTDDFFADEKSISENYVIPLLMTNVQGADSILQGKPVVENPVLTNAGDWSILPQNFVLYAVKYVNPWHGEYLRRGIDHATVAGTSKDIIRHEQFVENDEVVNISTKSMKDNLLTLKTKDESGKDISYTVRLSFAEDGSCTVHSGSQNVVVSGSGKFVSKGEKNSLGGKDRNAIYLDYTVNLTDNNIQLATKDTLVLRTRNVYGGKSLEVVRK
[1]
  glycan array binding signal (z-score): -0.063
[2]
  glycan array binding signal (z-score): -0.088
[3]
  glycan array binding signal (z-score): -0.428
[4]
  glycan array binding signal (z-score): 0.187
[5]
  glycan array binding signal (z-score): -0.26
[6]
  glycan array binding signal (z-score): -0.098
[7]
  glycan array binding signal (z-score): -0.084
[8]
  glycan array binding signal (z-score): -0.237
[9]
  glycan array binding signal (z-score): 0
[10]
  glycan array binding signal (z-score): -0.329
[11]
  glycan array binding signal (z-score): -0.05
[12]
  glycan array binding signal (z-score): -0.388
[13]
  glycan array binding signal (z-score): 0.096
[14]
  glycan array binding signal (z-score): -0.714
[15]
  glycan array binding signal (z-score): 0.719
[16]
  glycan array binding signal (z-score): -0.193
[17]
  glycan array binding signal (z-score): 0.14
[18]
  glycan array binding signal (z-score): -0.483
[19]
  glycan array binding signal (z-score): 19.1
[20]
  glycan array binding signal (z-score): 0.447
[21]
  glycan array binding signal (z-score): -0.091
[22]
  glycan array binding signal (z-score): 0.236
[23]
  glycan array binding signal (z-score): 0.959
[24]
  glycan array binding signal (z-score): -0.138
[25]
  glycan array binding signal (z-score): 0.299
[26]
  glycan array binding signal (z-score): -0.457
[27]
  glycan array binding signal (z-score): -0.101
[28]
  glycan array binding signal (z-score): 0.394
[29]
  glycan array binding signal (z-score): -0.381
[30]
  glycan array binding signal (z-score): 0.23
[31]
  glycan array binding signal (z-score): -0.414
[32]
  glycan array binding signal (z-score): 0.709
[33]
  glycan array binding signal (z-score): -0.732
[34]
  glycan array binding signal (z-score): 0.055
[35]
  glycan array binding signal (z-score): -0.425
[36]
  glycan array binding signal (z-score): -0.56
[37]
  glycan array binding signal (z-score): -0.214
